# Results published in the supplement of paper PMC8728848.
# The other results are listed elsewhere or left out.
# B1: Gal 8 (Mus musculus), Q9JL15 (protein)
# chain: MGGSHHHHHHGMASMLSLNNLQNIIYNPIIPYVGTITEQLKPGSLIVIRGHVPKDSERFQVDFQLGNSLKPRADVAFHFNPRFKRSSCIVCNTLTQEKWGWEEITYDMPFRKEKSFEIVFMVLKNKFQVAVNGRHVLLYAHRISPEQIDTVGIYGKVNIHSIGFRFSSASALPHTLGDLQSMETSALGLTQINRENIQKPGKLQLSLPFEARLNASMGPGRTVVIKGEVNTNARSFNVDLVAGKTRDIALHLNPRLNVKAFVRNSFLQDAWGEEERNITCFPFSSGMYFEMIIYCDVREFKVAINGVHSLEYKHRFKDLSSIDTLSVDGDIRLLDVRSW
# Tests used:
# Test in all cases: glycan array binding signal (z-score within array); higher = stronger binding
# Conditions in all cases: glycan notation: IUPAC condensed, linker removed
# [1] = target: Fuc(a1-2)[GalNAc(a1-3)]Gal(b1-3)GlcNAc(b1-3)GalNAc
# Procedure, shortened: (§1)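 The binding signal is a Z-score computed within each array. Data were drawn from 3228 arrays in the Consortium for Functional Glycomics database, restricted to those with a known protein sequence. Scores were averaged over arrays of the same protein sequence at different concentrations or buffers, and over linkers, and negative values can be taken as non-binding.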
# [2] = target: Fuc(a1-2)[GalNAc(a1-3)]Gal(b1-3)GlcNAc(b1-6)GalNAc
# Procedure, shortened: as §1
# [3] = target: Fuc(a1-2)[GalNAc(a1-3)]Gal(b1-4)Glc
# Procedure, shortened: as §1
# [4] = target: Fuc(a1-2)[GalNAc(a1-3)]Gal(b1-4)GlcNAc
# Procedure, shortened: as §1
# [5] = target: Fuc(a1-2)[GalNAc(a1-3)]Gal(b1-4)GlcNAc(b1-2)Man
# Procedure, shortened: as §1
# [6] = target: Fuc(a1-2)[GalNAc(a1-3)]Gal(b1-4)GlcNAc(b1-2)Man(a1-3)[Fuc(a1-2)[GalNAc(a1-3)]Gal(b1-4)GlcNAc(b1-2)Man(a1-6)]Man(b1-4)GlcNAc(b1-4)GlcNAc
# Procedure, shortened: as §1
# [7] = target: Fuc(a1-2)[GalNAc(a1-3)]Gal(b1-4)GlcNAc(b1-2)Man(a1-3)[Fuc(a1-2)[GalNAc(a1-3)]Gal(b1-4)GlcNAc(b1-2)Man(a1-6)]Man(b1-4)GlcNAc(b1-4)[Fuc(a1-6)]GlcNAc
# Procedure, shortened: as §1
# [8] = target: Fuc(a1-2)[GalNAc(a1-3)]Gal(b1-4)GlcNAc(b1-3)Gal(b1-4)GlcNAc
# Procedure, shortened: as §1
# [9] = target: Fuc(a1-2)[GalNAc(a1-3)]Gal(b1-4)GlcNAc(b1-3)Gal(b1-4)GlcNAc(b1-3)Gal(b1-4)GlcNAc
# Procedure, shortened: as §1
# [10] = target: Fuc(a1-2)[GalNAc(a1-3)]Gal(b1-4)GlcNAc(b1-3)GalNAc
# Procedure, shortened: as §1
# [11] = target: Fuc(a1-2)[GalNAc(a1-3)]Gal(b1-4)GlcNAc(b1-3)[Fuc(a1-2)[GalNAc(a1-3)]Gal(b1-4)GlcNAc(b1-6)]GalNAc
# Procedure, shortened: as §1
# [12] = target: Fuc(a1-2)[GalNAc(a1-3)]Gal(b1-4)GlcNAc(b1-6)GalNAc
# Procedure, shortened: as §1
# [13] = target: Fuc(a1-2)[GalNAc(a1-3)]Gal(b1-4)[Fuc(a1-3)]GlcNAc
# Procedure, shortened: as §1
# [14] = target: Fuc(a1-2)[GalNAc(a1-3)]Gal(b1-4)[Fuc(a1-3)]GlcNAc(b1-3)GalNAc
# Procedure, shortened: as §1
# [15] = target: Fuc(a1-2)[GalNAc(a1-4)]Gal(b1-4)GlcNAc
# Procedure, shortened: as §1
# [16] = target: Fuc(a1-2)[GalNAc(b1-3)]Gal
# Procedure, shortened: as §1
# [17] = target: Fuc(a1-3)GlcNAc
# Procedure, shortened: as §1
# [18] = target: Fuc(a1-3)[Gal(b1-4)]Glc6S
# Procedure, shortened: as §1
# [19] = target: Fuc(a1-3)[Gal(b1-4)]GlcNAc
# Procedure, shortened: as §1
# [20] = target: Fuc(a1-3)[Gal(b1-4)]GlcNAc(b1-2)Man
# Procedure, shortened: as §1
# [21] = target: Fuc(a1-3)[Gal(b1-4)]GlcNAc(b1-2)Man(a1-3)[Fuc(a1-3)[Gal(b1-4)]GlcNAc(b1-2)Man(a1-6)]Man(b1-4)GlcNAc(b1-4)GlcNAc
# Procedure, shortened: as §1
# [22] = target: Fuc(a1-3)[Gal(b1-4)]GlcNAc(b1-2)Man(a1-3)[Fuc(a1-3)[Gal(b1-4)]GlcNAc(b1-2)Man(a1-6)]Man(b1-4)GlcNAc(b1-4)[Fuc(a1-6)]GlcNAc
# Procedure, shortened: as §1
# [23] = target: Fuc(a1-3)[Gal(b1-4)]GlcNAc(b1-3)Gal(b1-3)[Fuc(a1-4)]GlcNAc
# Procedure, shortened: as §1
# [24] = target: Fuc(a1-3)[Gal(b1-4)]GlcNAc(b1-3)Gal(b1-4)[Fuc(a1-3)]GlcNAc
# Procedure, shortened: as §1
# [25] = target: Fuc(a1-3)[Gal(b1-4)]GlcNAc(b1-3)Gal(b1-4)[Fuc(a1-3)]GlcNAc(b1-3)Gal(b1-4)[Fuc(a1-3)]GlcNAc
# Procedure, shortened: as §1
# [26] = target: Fuc(a1-3)[Gal(b1-4)]GlcNAc(b1-3)GalNAc
# Procedure, shortened: as §1
# [27] = target: Fuc(a1-3)[Gal(b1-4)]GlcNAc(b1-6)GalNAc
# Procedure, shortened: as §1
# [28] = target: Fuc(a1-3)[Gal(b1-4)]GlcNAc(b1-6)[Gal(b1-3)GlcNAc(b1-3)]Gal(b1-4)Glc
# Procedure, shortened: as §1
# [29] = target: Fuc(a1-3)[Gal(b1-4)]GlcNAc6S
# Procedure, shortened: as §1
# [30] = target: Fuc(a1-3)[Gal3S(b1-4)]Glc
# Procedure, shortened: as §1
# [31] = target: Fuc(a1-3)[Gal3S(b1-4)]GlcNAc
# Procedure, shortened: as §1
# [32] = target: Fuc(a1-3)[Gal3S(b1-4)]GlcNAc6S
# Procedure, shortened: as §1
# [33] = target: Fuc(a1-3)[GalNAc(b1-4)]GlcNAc
# Procedure, shortened: as §1
# [34] = target: Fuc(a1-3)[GalNAc(b1-4)]GlcNAc6S
# Procedure, shortened: as §1
# [35] = target: Fuc(a1-4)GlcNAc
# Procedure, shortened: as §1
# [36] = target: Fuc(b1-3)GlcNAc
# Procedure, shortened: as §1
# [37] = target: Gal(a1-2)Gal
# Procedure, shortened: as §1
binder,measurement,setting,value
B1,glycan array binding signal (z-score),[1],0.248
same,glycan array binding signal (z-score),[2],2.02
same,glycan array binding signal (z-score),[3],1.61
same,glycan array binding signal (z-score),[4],2.06
same,glycan array binding signal (z-score),[5],3.48
same,glycan array binding signal (z-score),[6],2.27
same,glycan array binding signal (z-score),[7],0.958
same,glycan array binding signal (z-score),[8],2.19
same,glycan array binding signal (z-score),[9],2.25
same,glycan array binding signal (z-score),[10],1.31
same,glycan array binding signal (z-score),[11],1.87
same,glycan array binding signal (z-score),[12],1.3
same,glycan array binding signal (z-score),[13],-0.526
same,glycan array binding signal (z-score),[14],-0.477
same,glycan array binding signal (z-score),[15],-0.537
same,glycan array binding signal (z-score),[16],-0.136
same,glycan array binding signal (z-score),[17],-0.543
same,glycan array binding signal (z-score),[18],-0.472
same,glycan array binding signal (z-score),[19],-0.539
same,glycan array binding signal (z-score),[20],-0.54
same,glycan array binding signal (z-score),[21],-0.511
same,glycan array binding signal (z-score),[22],-0.537
same,glycan array binding signal (z-score),[23],-0.537
same,glycan array binding signal (z-score),[24],-0.528
same,glycan array binding signal (z-score),[25],-0.537
same,glycan array binding signal (z-score),[26],-0.533
same,glycan array binding signal (z-score),[27],-0.529
same,glycan array binding signal (z-score),[28],0.008
same,glycan array binding signal (z-score),[29],-0.533
same,glycan array binding signal (z-score),[30],-0.523
same,glycan array binding signal (z-score),[31],-0.521
same,glycan array binding signal (z-score),[32],-0.518
same,glycan array binding signal (z-score),[33],-0.529
same,glycan array binding signal (z-score),[34],-0.542
same,glycan array binding signal (z-score),[35],-0.474
same,glycan array binding signal (z-score),[36],-0.5
same,glycan array binding signal (z-score),[37],-0.537
